The source of these data is article PMC12143978.

Amino acid sequences for entries named in this document (tags omitted).
UniProt P78527: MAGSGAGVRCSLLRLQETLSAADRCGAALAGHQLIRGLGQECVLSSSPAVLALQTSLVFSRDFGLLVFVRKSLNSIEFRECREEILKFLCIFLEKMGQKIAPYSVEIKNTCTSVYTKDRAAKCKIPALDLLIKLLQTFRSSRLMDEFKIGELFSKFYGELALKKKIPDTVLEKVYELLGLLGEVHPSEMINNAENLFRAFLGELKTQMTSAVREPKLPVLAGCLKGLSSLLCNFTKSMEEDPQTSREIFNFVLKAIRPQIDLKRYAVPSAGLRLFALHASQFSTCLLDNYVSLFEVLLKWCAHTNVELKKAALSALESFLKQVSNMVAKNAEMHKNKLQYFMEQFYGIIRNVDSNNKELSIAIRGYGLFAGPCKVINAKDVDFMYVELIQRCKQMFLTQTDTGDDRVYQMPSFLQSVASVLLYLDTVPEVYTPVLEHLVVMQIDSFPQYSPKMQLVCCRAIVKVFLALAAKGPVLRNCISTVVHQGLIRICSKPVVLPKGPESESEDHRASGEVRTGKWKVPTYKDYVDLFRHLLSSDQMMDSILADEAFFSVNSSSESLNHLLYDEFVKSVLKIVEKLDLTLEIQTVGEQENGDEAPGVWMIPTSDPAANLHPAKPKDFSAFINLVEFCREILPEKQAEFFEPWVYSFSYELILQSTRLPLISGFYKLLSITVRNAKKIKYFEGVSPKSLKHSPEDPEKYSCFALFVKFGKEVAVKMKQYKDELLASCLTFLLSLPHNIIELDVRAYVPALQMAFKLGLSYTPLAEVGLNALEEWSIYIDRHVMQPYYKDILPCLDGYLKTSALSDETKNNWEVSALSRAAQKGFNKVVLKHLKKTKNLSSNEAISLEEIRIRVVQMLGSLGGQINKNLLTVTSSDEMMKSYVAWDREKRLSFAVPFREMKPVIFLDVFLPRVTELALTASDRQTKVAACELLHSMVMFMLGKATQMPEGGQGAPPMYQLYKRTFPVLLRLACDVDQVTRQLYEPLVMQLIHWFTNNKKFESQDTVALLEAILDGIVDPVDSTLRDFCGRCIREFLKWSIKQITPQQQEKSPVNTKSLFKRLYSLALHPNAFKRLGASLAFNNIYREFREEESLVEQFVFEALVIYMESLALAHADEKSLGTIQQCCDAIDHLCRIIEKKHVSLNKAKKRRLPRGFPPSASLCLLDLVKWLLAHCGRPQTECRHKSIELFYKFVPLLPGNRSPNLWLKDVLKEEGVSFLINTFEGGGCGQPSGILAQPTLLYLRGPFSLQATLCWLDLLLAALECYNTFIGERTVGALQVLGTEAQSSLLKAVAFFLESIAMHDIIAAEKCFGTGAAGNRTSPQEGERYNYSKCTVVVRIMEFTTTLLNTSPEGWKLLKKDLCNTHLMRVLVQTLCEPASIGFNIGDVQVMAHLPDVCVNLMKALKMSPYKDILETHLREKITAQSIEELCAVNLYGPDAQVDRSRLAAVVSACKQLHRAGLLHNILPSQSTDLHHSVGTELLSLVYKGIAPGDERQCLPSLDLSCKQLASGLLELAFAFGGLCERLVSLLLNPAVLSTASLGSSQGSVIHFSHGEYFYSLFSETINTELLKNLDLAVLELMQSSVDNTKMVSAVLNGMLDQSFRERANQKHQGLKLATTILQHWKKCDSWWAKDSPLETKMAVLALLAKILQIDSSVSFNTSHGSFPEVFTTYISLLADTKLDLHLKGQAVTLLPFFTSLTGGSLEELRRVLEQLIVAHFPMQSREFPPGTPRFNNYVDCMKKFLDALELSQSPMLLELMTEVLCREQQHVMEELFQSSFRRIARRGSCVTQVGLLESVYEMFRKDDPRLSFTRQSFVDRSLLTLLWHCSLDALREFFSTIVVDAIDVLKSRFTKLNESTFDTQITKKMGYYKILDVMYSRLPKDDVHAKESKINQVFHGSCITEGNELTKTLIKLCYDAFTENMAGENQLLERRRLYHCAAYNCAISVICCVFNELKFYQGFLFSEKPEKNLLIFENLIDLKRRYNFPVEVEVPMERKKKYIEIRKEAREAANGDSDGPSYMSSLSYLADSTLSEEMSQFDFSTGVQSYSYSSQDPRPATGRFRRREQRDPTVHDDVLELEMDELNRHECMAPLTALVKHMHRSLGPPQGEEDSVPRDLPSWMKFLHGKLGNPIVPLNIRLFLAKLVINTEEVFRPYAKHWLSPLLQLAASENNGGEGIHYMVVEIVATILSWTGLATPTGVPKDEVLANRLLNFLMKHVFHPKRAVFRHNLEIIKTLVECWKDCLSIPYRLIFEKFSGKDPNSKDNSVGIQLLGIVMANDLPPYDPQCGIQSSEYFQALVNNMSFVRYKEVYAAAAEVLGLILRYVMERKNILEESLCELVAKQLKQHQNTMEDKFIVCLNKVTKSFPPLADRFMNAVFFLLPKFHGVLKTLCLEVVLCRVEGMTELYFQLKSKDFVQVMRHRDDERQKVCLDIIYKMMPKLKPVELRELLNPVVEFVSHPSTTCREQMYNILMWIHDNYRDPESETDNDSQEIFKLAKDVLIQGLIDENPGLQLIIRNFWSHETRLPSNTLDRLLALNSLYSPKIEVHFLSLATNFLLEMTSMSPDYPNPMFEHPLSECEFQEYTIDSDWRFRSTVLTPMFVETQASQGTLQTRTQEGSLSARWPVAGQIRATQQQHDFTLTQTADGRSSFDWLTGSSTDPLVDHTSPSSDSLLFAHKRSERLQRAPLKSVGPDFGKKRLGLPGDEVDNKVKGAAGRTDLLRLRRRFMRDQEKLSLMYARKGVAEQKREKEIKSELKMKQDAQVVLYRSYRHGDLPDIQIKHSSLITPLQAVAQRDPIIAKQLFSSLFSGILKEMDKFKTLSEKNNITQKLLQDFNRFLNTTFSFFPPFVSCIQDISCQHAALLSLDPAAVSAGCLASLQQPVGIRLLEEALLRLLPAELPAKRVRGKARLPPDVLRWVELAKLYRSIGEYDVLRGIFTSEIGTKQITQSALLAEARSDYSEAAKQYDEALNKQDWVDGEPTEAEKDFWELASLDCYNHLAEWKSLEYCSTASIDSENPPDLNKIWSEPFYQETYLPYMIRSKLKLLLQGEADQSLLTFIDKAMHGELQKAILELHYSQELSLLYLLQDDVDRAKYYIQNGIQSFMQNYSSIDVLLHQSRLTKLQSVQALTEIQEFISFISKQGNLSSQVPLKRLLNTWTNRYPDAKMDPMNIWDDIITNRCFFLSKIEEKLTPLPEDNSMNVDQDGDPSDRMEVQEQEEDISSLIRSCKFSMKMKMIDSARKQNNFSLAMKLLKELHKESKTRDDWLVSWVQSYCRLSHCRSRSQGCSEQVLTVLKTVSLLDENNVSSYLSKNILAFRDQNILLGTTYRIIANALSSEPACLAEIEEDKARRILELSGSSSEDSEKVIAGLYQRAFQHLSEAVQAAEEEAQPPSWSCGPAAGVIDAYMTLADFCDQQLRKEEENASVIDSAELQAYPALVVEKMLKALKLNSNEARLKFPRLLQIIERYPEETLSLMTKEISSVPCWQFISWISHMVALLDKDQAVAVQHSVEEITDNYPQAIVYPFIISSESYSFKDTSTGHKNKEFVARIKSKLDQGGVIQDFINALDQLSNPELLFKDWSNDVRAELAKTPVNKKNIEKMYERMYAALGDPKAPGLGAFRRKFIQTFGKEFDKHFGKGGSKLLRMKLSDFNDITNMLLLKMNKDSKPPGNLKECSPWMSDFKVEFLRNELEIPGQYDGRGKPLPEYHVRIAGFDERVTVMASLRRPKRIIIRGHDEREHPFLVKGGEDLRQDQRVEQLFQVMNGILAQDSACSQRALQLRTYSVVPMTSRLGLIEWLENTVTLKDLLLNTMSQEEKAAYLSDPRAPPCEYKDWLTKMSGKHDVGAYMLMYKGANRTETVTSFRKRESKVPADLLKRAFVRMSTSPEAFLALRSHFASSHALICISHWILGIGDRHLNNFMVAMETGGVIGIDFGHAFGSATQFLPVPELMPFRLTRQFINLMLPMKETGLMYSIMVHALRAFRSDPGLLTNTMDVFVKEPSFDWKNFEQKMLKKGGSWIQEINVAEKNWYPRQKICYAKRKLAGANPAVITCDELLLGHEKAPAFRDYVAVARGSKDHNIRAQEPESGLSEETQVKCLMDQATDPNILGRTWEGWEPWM

These are yes or no findings as the source states them, for the method shown. Binding seen in cells or lysates may run through a third protein. Some results given as binding are weak or reduced against the parent protein; the word gives no strength. For some of these results: Tags and fused reporters may be left off the sequences shown.

Assay [1] addresses T1, GST-tagged FLCN (folliculin) (human) (UniProt Q8NFG4).
T1 sequence: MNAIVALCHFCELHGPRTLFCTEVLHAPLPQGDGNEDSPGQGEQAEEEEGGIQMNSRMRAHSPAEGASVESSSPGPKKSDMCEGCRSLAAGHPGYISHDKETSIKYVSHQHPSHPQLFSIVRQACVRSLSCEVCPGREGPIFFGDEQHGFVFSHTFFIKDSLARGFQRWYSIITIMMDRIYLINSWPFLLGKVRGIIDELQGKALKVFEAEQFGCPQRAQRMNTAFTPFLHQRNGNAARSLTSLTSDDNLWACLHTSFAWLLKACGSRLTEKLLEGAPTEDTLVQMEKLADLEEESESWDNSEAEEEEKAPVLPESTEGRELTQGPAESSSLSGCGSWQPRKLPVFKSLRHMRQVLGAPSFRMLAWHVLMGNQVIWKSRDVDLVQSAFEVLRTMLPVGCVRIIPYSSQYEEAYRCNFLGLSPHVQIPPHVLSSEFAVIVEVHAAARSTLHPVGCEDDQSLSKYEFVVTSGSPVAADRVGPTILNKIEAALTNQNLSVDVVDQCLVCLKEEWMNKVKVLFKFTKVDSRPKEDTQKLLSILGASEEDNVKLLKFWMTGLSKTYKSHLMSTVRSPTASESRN
In words: pull-down; GST-FLCN in HEK293 lysate held on glutathione-Sepharose 4B beads, 4°C, 3 h; washed 5 times in BHD lysis buffer with 300 mM NaCl for DNA-PKcs (250 mM for all other proteins); eluted with 10 mM glutathione; endogenous proteins detected by western blot.

The target of assay [2] is T2, endogenous FLCN (folliculin) (human (endogenous; the cell line of Fig. 5B is not stated, the paper's cell lines HEK293 and HK2 are human)) (UniProt Q8NFG4).
T2 sequence: T1 sequence
Nature of the assay: co-IP; endogenous FLCN immunoprecipitated with an antibody against N-terminal FLCN; endogenous DNA-PKcs detected via western blotting.

For assay [3], the target named is T3, HA-tagged FLCN H429X (human) (UniProt Q8NFG4).
T3 sequence: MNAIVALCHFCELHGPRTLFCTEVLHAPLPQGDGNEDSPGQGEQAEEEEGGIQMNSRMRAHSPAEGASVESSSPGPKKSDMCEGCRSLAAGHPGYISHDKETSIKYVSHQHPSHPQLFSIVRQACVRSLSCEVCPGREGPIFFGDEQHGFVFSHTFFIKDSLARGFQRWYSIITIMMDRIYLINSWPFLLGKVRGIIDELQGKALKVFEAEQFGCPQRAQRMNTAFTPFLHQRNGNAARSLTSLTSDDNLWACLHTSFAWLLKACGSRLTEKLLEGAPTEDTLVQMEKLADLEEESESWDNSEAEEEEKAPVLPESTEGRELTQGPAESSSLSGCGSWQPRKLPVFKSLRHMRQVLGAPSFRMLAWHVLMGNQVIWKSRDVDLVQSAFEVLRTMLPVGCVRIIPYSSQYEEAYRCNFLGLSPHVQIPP
In words: co-IP; HA-FLCN constructs overexpressed in HEK293 cells; precleared lysates, anti-HA antibodies 2 h at 4°C, protein G-Sepharose; endogenous DNA-PKcs detected via western blotting.

Assay [4] deals with T4, HA-tagged FLCN Y463X (human) (UniProt Q8NFG4).
T4 sequence: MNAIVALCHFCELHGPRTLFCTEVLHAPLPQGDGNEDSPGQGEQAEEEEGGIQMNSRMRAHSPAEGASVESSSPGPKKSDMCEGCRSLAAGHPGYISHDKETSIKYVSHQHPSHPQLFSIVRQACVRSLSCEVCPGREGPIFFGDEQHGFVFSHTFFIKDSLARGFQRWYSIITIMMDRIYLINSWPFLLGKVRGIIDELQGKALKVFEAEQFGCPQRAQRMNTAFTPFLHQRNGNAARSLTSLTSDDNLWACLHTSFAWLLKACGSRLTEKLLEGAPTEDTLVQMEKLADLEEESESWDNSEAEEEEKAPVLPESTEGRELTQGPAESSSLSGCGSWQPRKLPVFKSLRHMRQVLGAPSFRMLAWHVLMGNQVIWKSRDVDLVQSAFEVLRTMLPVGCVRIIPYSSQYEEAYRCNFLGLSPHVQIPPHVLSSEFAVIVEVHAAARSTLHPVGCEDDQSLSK
The description is as above.

The target of assay [5] is T5, HA-tagged FLCN wild type (human) (UniProt Q8NFG4).
T5 sequence: T1 sequence
The description is as above.

For assay [6], the target named is T1, GST-tagged FLCN (folliculin) (human). Nature of the assay: condition: only cells irradiated (5 or 10 Gy) 1 or 4 h before lysis; pull-down; GST-FLCN overexpressed in HEK293 cells that were subjected to IR (5 or 10 Gy) and left for 1 or 4 h prior to lysis; GST-FLCN purified, endogenous DNA-PKcs detected via western blotting.

Take ATR (from UniProt Q13535 1-2644): the binding result in assay [1] is given as “no binding”.

Consider “DNA-dependent protein kinase catalytic subunit (DNA-PKcs) (from UniProt P78527 1-4128)”, for which the binding entry in assay [2] was “binds”; in assay [3], “binds”; in assay [4] it was “binds”; in assay [5] it was “binds”; in assay [1], “binds”; in assay [6], “no binding”.
